Assay results taken from patent US20240076343A1 (CEPHALON, published 2024).

T1: high-affinity hIL-2 receptor (IL-2Rαβγ) on NK-92 cells (human, UniProt P01589 22-272; P14784 27-551; P31785 23-369)
T1 sequence 1: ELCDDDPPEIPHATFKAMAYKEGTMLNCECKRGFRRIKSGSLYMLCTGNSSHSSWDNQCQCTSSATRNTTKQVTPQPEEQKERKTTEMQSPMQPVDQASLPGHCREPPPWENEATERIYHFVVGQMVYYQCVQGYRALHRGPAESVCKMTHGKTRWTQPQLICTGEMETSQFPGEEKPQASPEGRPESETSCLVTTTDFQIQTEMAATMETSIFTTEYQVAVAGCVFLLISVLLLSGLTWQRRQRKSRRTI
T1 sequence 2: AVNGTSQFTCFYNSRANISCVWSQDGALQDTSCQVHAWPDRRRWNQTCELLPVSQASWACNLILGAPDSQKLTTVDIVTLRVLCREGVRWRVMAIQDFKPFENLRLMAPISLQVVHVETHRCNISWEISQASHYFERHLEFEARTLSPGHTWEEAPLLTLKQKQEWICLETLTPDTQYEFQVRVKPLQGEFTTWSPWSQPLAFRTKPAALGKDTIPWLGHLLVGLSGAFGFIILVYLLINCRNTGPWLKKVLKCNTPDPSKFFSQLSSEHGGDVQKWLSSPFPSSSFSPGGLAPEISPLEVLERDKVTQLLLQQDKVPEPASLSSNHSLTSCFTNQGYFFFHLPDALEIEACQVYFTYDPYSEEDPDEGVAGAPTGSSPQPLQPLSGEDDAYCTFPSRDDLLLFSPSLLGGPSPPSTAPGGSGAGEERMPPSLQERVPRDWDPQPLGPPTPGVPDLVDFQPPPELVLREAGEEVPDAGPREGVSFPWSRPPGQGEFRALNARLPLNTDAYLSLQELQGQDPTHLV
T1 sequence 3: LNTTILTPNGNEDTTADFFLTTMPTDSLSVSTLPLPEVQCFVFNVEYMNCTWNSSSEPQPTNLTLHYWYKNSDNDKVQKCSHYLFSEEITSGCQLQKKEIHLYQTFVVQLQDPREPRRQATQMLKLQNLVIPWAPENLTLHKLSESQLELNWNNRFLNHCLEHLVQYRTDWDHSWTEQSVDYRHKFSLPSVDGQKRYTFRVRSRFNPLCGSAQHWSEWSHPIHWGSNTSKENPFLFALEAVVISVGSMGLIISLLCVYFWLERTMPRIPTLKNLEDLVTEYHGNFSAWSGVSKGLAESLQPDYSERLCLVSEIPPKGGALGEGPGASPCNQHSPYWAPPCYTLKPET

T2: intermediate-affinity hIL-2 receptor (IL-2Rβγ) on TF1+IL-2Rβ cells (human, UniProt P14784 27-551; P31785 23-369)
T2 sequence 1: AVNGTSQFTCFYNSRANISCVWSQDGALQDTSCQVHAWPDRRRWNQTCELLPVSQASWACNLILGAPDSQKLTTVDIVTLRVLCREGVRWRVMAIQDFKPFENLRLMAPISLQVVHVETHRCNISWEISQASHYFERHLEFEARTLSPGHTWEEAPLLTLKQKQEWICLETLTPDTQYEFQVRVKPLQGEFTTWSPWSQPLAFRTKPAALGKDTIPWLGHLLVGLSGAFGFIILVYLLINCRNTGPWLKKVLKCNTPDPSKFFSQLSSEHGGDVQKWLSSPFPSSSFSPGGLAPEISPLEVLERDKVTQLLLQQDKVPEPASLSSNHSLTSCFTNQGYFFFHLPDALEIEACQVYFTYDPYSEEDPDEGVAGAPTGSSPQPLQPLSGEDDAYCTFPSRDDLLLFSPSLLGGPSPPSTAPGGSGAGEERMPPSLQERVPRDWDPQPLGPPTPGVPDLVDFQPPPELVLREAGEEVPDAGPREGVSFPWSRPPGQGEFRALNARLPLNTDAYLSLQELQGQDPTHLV
T2 sequence 2: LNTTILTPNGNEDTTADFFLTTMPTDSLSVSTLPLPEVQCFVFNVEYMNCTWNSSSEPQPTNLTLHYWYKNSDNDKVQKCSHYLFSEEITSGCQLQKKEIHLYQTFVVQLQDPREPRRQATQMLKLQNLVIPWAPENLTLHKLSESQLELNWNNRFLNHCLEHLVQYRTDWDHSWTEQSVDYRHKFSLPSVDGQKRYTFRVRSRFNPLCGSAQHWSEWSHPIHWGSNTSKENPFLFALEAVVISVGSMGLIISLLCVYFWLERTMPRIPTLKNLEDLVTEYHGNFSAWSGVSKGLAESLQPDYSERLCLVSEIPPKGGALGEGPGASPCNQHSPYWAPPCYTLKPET


Tests used:
Assay in all cases: cell-based or functional assay
[1] = target: T1, high-affinity hIL-2 receptor (IL-2Rαβγ) …
[2] = target: T2, intermediate-affinity hIL-2 receptor …
[3] = target: T2, intermediate-affinity hIL-2 receptor …; remark: listed apart in the source

| Fold change from rhIL-2 (NK-92) [1] [fold] | Fold change from rhIL-2 (TF1 + IL-2Rβ) [2] [fold] | Fold decrease from rhIL-2 (TF1 + IL-2Rβ + hPD-1) [3] [fold] | Agonistic Activity (NK-92) [1] [%] | Agonistic Activity (TF1 + IL-2Rβ) [2] [%] | Binder |
| --- | --- | --- | --- | --- | --- |
| ~377 | 296 | ~1890 | – | – | 1H3-hIgG4-L6-hIL-2 (R38E/I92D) (other) heavy: EVQLVESGGGLVQPGRSLKLSCAVSGFTFSDYAMAWVRQAPKKGLEWVATISYDGSRTYYRDSVKGRFTISRDNAKITLYLQMDSLRSEDTATYYCARHGSGYFDYWGQGVMVTVSSASTKGPSVFPLAPCSRSTSESTAALGCLVKDYFPEPVTVSWNSGALTSGVHTFPAVLQSSGLYSLSSVVTVPSSSLGTKTYTCNVDHKPSNTKVDKRV[not shown - about 350 residues with a human IgG4 Fc and changes] light: DTVLTQSPALAVSPGERVTISCRASESVRTGVHWYQQKPGQQPKLLIYGASNLESGVPARFSGSGSGTDFTLTIDPVEADDTATYFCQQSWNDPFTFGSGTKLEIKRTVAAPSVFIFPPSDEQLKSGTASVVCLLNNFYPREAKVQWKVDNALQSGNSQESVTEQDSKDSTYSLSSTLTLSKADYEKHKVYACEVTHQGLSSPVTKSFNRGEC |
| > 10000 | 6440 | 4710 | 20 | 40 | 1H3-hIgG4-L6-hIL-2 (D20A/R38E/C125A) (other) heavy: EVQLVESGGGLVQPGRSLKLSCAVSGFTFSDYAMAWVRQAPKKGLEWVATISYDGSRTYYRDSVKGRFTISRDNAKITLYLQMDSLRSEDTATYYCARHGSGYFDYWGQGVMVTVSSASTKGPSVFPLAPCSRSTSESTAALGCLVKDYFPEPVTVSWNSGALTSGVHTFPAVLQSSGLYSLSSVVTVPSSSLGTKTYTCNVDHKPSNTKVDKRV[not shown - human IgG4 Fc with S228P (EU numbers)]SGGGGSAPTSSSTKKTQLQLEHLLLALQMILNGINNYKNPKLTEMLTFKFYMPKKATELKHLQCLEEELKPLEEVLNLAQSKNFHLRPRDLISNINVIVLELKGSETTFMCEYADETATIVEFLNRWITFAQSIISTLT light: DTVLTQSPALAVSPGERVTISCRASESVRTGVHWYQQKPGQQPKLLIYGASNLESGVPARFSGSGSGTDFTLTIDPVEADDTATYFCQQSWNDPFTFGSGTKLEIKRTVAAPSVFIFPPSDEQLKSGTASVVCLLNNFYPREAKVQWKVDNALQSGNSQESVTEQDSKDSTYSLSSTLTLSKADYEKHKVYACEVTHQGLSSPVTKSFNRGEC |
| > 10000 | > 10000 | ~9170 | 40 | 70 | 1H3-hIgG4-L6-hIL-2 (T3A/D20A/R38E) (other) heavy: EVQLVESGGGLVQPGRSLKLSCAVSGFTFSDYAMAWVRQAPKKGLEWVATISYDGSRTYYRDSVKGRFTISRDNAKITLYLQMDSLRSEDTATYYCARHGSGYFDYWGQGVMVTVSSASTKGPSVFPLAPCSRSTSESTAALGCLVKDYFPEPVTVSWNSGALTSGVHTFPAVLQSSGLYSLSSVVTVPSSSLGTKTYTCNVDHKPSNTKVDKRV[not shown - human IgG4 Fc with S228P (EU numbers)]SGGGGSAPASSSTKKTQLQLEHLLLALQMILNGINNYKNPKLTEMLTFKFYMPKKATELKHLQCLEEELKPLEEVLNLAQSKNFHLRPRDLISNINVIVLELKGSETTFMCEYADETATIVEFLNRWITFCQSIISTLT light: DTVLTQSPALAVSPGERVTISCRASESVRTGVHWYQQKPGQQPKLLIYGASNLESGVPARFSGSGSGTDFTLTIDPVEADDTATYFCQQSWNDPFTFGSGTKLEIKRTVAAPSVFIFPPSDEQLKSGTASVVCLLNNFYPREAKVQWKVDNALQSGNSQESVTEQDSKDSTYSLSSTLTLSKADYEKHKVYACEVTHQGLSSPVTKSFNRGEC |
| 392 | 186 | 513 | 80 | 60 | 1H3-hIgG1-L6-hIL-2 (T3A/D20A/R38E) (other) heavy: EVQLVESGGGLVQPGRSLKLSCAVSGFTFSDYAMAWVRQAPKKGLEWVATISYDGSRTYYRDSVKGRFTISRDNAKITLYLQMDSLRSEDTATYYCARHGSGYFDYWGQGVMVTVSS[not shown - human IgG1 constant region]SGGGGSAPASSSTKKTQLQLEHLLLALQMILNGINNYKNPKLTEMLTFKFYMPKKATELKHLQCLEEELKPLEEVLNLAQSKNFHLRPRDLISNINVIVLELKGSETTFMCEYADETATIVEFLNRWITFCQSIISTLT light: DTVLTQSPALAVSPGERVTISCRASESVRTGVHWYQQKPGQQPKLLIYGASNLESGVPARFSGSGSGTDFTLTIDPVEADDTATYFCQQSWNDPFTFGSGTKLEIKRTVAAPSVFIFPPSDEQLKSGTASVVCLLNNFYPREAKVQWKVDNALQSGNSQESVTEQDSKDSTYSLSSTLTLSKADYEKHKVYACEVTHQGLSSPVTKSFNRGEC |
| ~2350 | ~2160 | 3340 | 80 | 60 | 1H3-hIgG1-L6-hIL-2 (D20A/R38E/C125A) (other) heavy: EVQLVESGGGLVQPGRSLKLSCAVSGFTFSDYAMAWVRQAPKKGLEWVATISYDGSRTYYRDSVKGRFTISRDNAKITLYLQMDSLRSEDTATYYCARHGSGYFDYWGQGVMVTVSS[not shown - human IgG1 constant region]SGGGGSAPTSSSTKKTQLQLEHLLLALQMILNGINNYKNPKLTEMLTFKFYMPKKATELKHLQCLEEELKPLEEVLNLAQSKNFHLRPRDLISNINVIVLELKGSETTFMCEYADETATIVEFLNRWITFAQSIISTLT light: DTVLTQSPALAVSPGERVTISCRASESVRTGVHWYQQKPGQQPKLLIYGASNLESGVPARFSGSGSGTDFTLTIDPVEADDTATYFCQQSWNDPFTFGSGTKLEIKRTVAAPSVFIFPPSDEQLKSGTASVVCLLNNFYPREAKVQWKVDNALQSGNSQESVTEQDSKDSTYSLSSTLTLSKADYEKHKVYACEVTHQGLSSPVTKSFNRGEC |
| ~794 | 393 | ~2020 | – | – | 1H3-hIgG4-L6-hIL-2 (F42H/I92D) (other) heavy: EVQLVESGGGLVQPGRSLKLSCAVSGFTFSDYAMAWVRQAPKKGLEWVATISYDGSRTYYRDSVKGRFTISRDNAKITLYLQMDSLRSEDTATYYCARHGSGYFDYWGQGVMVTVSSASTKGPSVFPLAPCSRSTSESTAALGCLVKDYFPEPVTVSWNSGALTSGVHTFPAVLQSSGLYSLSSVVTVPSSSLGTKTYTCNVDHKPSNTKVDKRV[not shown - about 350 residues with a human IgG4 Fc and changes] light: DTVLTQSPALAVSPGERVTISCRASESVRTGVHWYQQKPGQQPKLLIYGASNLESGVPARFSGSGSGTDFTLTIDPVEADDTATYFCQQSWNDPFTFGSGTKLEIKRTVAAPSVFIFPPSDEQLKSGTASVVCLLNNFYPREAKVQWKVDNALQSGNSQESVTEQDSKDSTYSLSSTLTLSKADYEKHKVYACEVTHQGLSSPVTKSFNRGEC |
| > 10000 | > 10000 | 4630 | 20 | – | 1H3-hIgG4-L6-hIL-2 (T3A/D20A/R38E/C125A) (other) heavy: EVQLVESGGGLVQPGRSLKLSCAVSGFTFSDYAMAWVRQAPKKGLEWVATISYDGSRTYYRDSVKGRFTISRDNAKITLYLQMDSLRSEDTATYYCARHGSGYFDYWGQGVMVTVSSASTKGPSVFPLAPCSRSTSESTAALGCLVKDYFPEPVTVSWNSGALTSGVHTFPAVLQSSGLYSLSSVVTVPSSSLGTKTYTCNVDHKPSNTKVDKRV[not shown - human IgG4 Fc with S228P (EU numbers)]SGGGGSAPASSSTKKTQLQLEHLLLALQMILNGINNYKNPKLTEMLTFKFYMPKKATELKHLQCLEEELKPLEEVLNLAQSKNFHLRPRDLISNINVIVLELKGSETTFMCEYADETATIVEFLNRWITFAQSIISTLT light: DTVLTQSPALAVSPGERVTISCRASESVRTGVHWYQQKPGQQPKLLIYGASNLESGVPARFSGSGSGTDFTLTIDPVEADDTATYFCQQSWNDPFTFGSGTKLEIKRTVAAPSVFIFPPSDEQLKSGTASVVCLLNNFYPREAKVQWKVDNALQSGNSQESVTEQDSKDSTYSLSSTLTLSKADYEKHKVYACEVTHQGLSSPVTKSFNRGEC |
